Scores with a large standard error are left out. Two further conditions of the source, in which the scores hardly spread, are not listed. In variant names, del marks residues removed and ins residues inserted between the two positions. For some assays here: The concentration of ogerin is not given here.

B1: GPR68, Q15743 (parent)
chain: MGNITADNSSMSCTIDHTIHQTLAPVVYVTVLVVGFPANCLSLYFGYLQIKARNELGVYLCNLTVADLFYICSLPFWLQYVLQHDNWSHGDLSCQVCGILLYENIYISVGFLCCISVDRYLAVAHPFRFHQFRTLKAAVGVSVVIWAKELLTSIYFLMHEEVIEDENQHRVCFEHYPIQAWQRAINYYRFLVGFLFPICLLLASYQGILRAVRRSHGTQKSRKDQIQRLVLSTVVIFLACFLPYHVLLLVRSVWEASCDFAKGVFNAYHFSLLLTSFNCVADPVLYCFVSETTHRDLARLRGACLAFLTCSRTGRAREAYPLGAPEASGKSGAQGEEPELLTKLHPAFQTPNSPGSGGFPTGRLA

Variants of B1 are the subject of data set [1]. In words: cAMP reporter score (Enrich2 score, wild type = 0); higher = more signal; HEK293T, FACS bins.
The variants in data set [2] derive from B1. In words: surface expression score (Enrich2 score, wild type = 0); higher = more signal; HEK293T, FACS bins.

Take E291del: the cAMP reporter score was -0.516 in data set [1] (pH 5.5); -0.755 in data set [1] (pH 6); -1.26 in data set [1] (pH 6, modulator: ogerin); -0.541 in data set [1] (pH 6.5, modulator: ogerin). The surface expression score in data set [2] is -0.336.
Consider V289_S290del, for which the cAMP reporter score in data set [1] (pH 5.5) is -1.7; in data set [1] (pH 6), -1.57; in data set [1] (pH 6, modulator: ogerin), -2.09; in data set [1] (pH 6.5, modulator: ogerin), -1.81. Also, the surface expression score in data set [2] was -1.88.
The like results for D296_L297del were, in that order, -0.845, -0.575, -1.47, -1.4 and -0.855.
For R301_G302insG, in that order: 0.595, -0.802, 0.534, -0.57 and 0.178.
As for T293_H294insGS, the cAMP reporter score in data set [1] (pH 5.5) is -0.44; in data set [1] (pH 6, modulator: ogerin), -1.14; in data set [1] (pH 6.5, modulator: ogerin), 0.227. The surface expression score in data set [2] is -0.312.
Consider R299_R301del, for which the cAMP reporter score in data set [1] (pH 5.5) was -1.91; in data set [1] (pH 6) it was -0.363; in data set [1] (pH 6, modulator: ogerin) it was -1.3; in data set [1] (pH 6.5, modulator: ogerin), -1.33. In addition, the surface expression score in data set [2] was -0.762.
For A303_C304del, in that order: 1.23, 0.083, 0.965, -0.44 and 0.2.
The like results for G302_A303insGSG were, in that order, -0.087, -0.659, -0.265, -0.982 and 0.04.
Consider Y286_C287insG, for which the cAMP reporter score in data set [1] (pH 5.5) is -0.646; in data set [1] (pH 6) it was -0.765; in data set [1] (pH 6, modulator: ogerin), -1.27; in data set [1] (pH 6.5, modulator: ogerin) it was -1.12. Also, the surface expression score in data set [2] is -1.8.
For C287_F288del, in that order: -1.65, -1.08, -0.951, -1.54 and -1.79.
The like results for L297_R299del were, in that order, -0.504, 0.026, -0.885, -0.668 and 0.458.
Turning to V289_E291del, the cAMP reporter score was -0.838 in data set [1] (pH 5.5); 0.189 in data set [1] (pH 6); -0.1 in data set [1] (pH 6, modulator: ogerin); -0.634 in data set [1] (pH 6.5, modulator: ogerin).
Take V289_S290insGS: the cAMP reporter score in data set [1] (pH 5.5) was -1.31; in data set [1] (pH 6), -0.708; in data set [1] (pH 6, modulator: ogerin), -1.69; in data set [1] (pH 6.5, modulator: ogerin) it was -0.91. For the same variant, the surface expression score in data set [2] is -0.082.
For F288del, in that order: -1.71, -0.707, -1.15, -0.184 and -3.08.
Regarding L300del, the cAMP reporter score in data set [1] (pH 5.5) was -0.324; in data set [1] (pH 6), -0.228; in data set [1] (pH 6, modulator: ogerin), -0.462; in data set [1] (pH 6.5, modulator: ogerin), -0.765. Besides, the surface expression score in data set [2] is -0.041.
For T292_T293insG, in that order: -1.95, -1.12, -1.19, -0.234 and 0.207.
For D296_L297insGS, in that order: -0.867, -0.754, -0.983, -0.432 and 1.16.
The like results for A303_C304insGS were, in that order, -0.106, -0.781, 0.117, -0.825 and -0.764.
Regarding C304S, the cAMP reporter score in data set [1] (pH 5.5) is -0.453; in data set [1] (pH 6), -0.615; in data set [1] (pH 6, modulator: ogerin), -0.201; in data set [1] (pH 6.5, modulator: ogerin), -0.567. Also, in data set [2], the surface expression score was -0.414.
C304W: the cAMP reporter score was -0.392 in data set [1] (pH 5.5); -0.555 in data set [1] (pH 6); -0.523 in data set [1] (pH 6, modulator: ogerin); -0.198 in data set [1] (pH 6.5, modulator: ogerin). Moreover, the surface expression score in data set [2] came to 0.14.
For C304Q, the cAMP reporter score in data set [1] (pH 5.5) was -0.188; in data set [1] (pH 6), -1.5; in data set [1] (pH 6, modulator: ogerin), -0.459; in data set [1] (pH 6.5, modulator: ogerin), -1.11. In data set [2], the surface expression score was -0.187.
For the variant C304T, the cAMP reporter score in data set [1] (pH 5.5) is 0.367; in data set [1] (pH 6), 0.24; in data set [1] (pH 6, modulator: ogerin), 1.06; in data set [1] (pH 6.5, modulator: ogerin), -0.07. In addition, in data set [2], the surface expression score is 0.19.
Regarding C304V, the cAMP reporter score in data set [1] (pH 5.5) was 0.629; in data set [1] (pH 6), 0.474; in data set [1] (pH 6, modulator: ogerin) it was 1.1; in data set [1] (pH 6.5, modulator: ogerin), 0.701. The surface expression score in data set [2] amounted to 0.489.
Regarding C304P, the cAMP reporter score in data set [1] (pH 5.5) was -1.57; in data set [1] (pH 6), -1.33; in data set [1] (pH 6, modulator: ogerin), -1.62; in data set [1] (pH 6.5, modulator: ogerin), -1.11. The surface expression score in data set [2] is -0.671.
The like results for C304I were, in that order, -0.858, -0.497, -0.509, 0.015 and -0.565.
For C304F, in that order: 0.058, 0.232, 0.298, 0.254 and 0.504.
In the case of C304M, the cAMP reporter score in data set [1] (pH 5.5) is -0.296; in data set [1] (pH 6) it was -0.749; in data set [1] (pH 6, modulator: ogerin) it was -0.499; in data set [1] (pH 6.5, modulator: ogerin), 0.7. In addition, the surface expression score in data set [2] was -0.389.
In the case of C304N, the cAMP reporter score in data set [1] (pH 5.5) was 0.474; in data set [1] (pH 6), -0.653; in data set [1] (pH 6, modulator: ogerin), -0.55; in data set [1] (pH 6.5, modulator: ogerin), -1.21. Moreover, the surface expression score in data set [2] turned out to be 0.254.
For C304H, the cAMP reporter score is 0.071 in data set [1] (pH 5.5); -1.09 in data set [1] (pH 6); 0.121 in data set [1] (pH 6, modulator: ogerin); -0.913 in data set [1] (pH 6.5, modulator: ogerin). Besides, in data set [2], the surface expression score was -0.383.
Regarding C304D, the cAMP reporter score is -0.322 in data set [1] (pH 5.5); 0.413 in data set [1] (pH 6); -0.612 in data set [1] (pH 6, modulator: ogerin). Moreover, the surface expression score in data set [2] was determined as 0.602.
Turning to C304E, the cAMP reporter score in data set [1] (pH 5.5) was 0.179; in data set [1] (pH 6), -0.858; in data set [1] (pH 6, modulator: ogerin), -0.498; in data set [1] (pH 6.5, modulator: ogerin) it was -0.343. Besides, in data set [2], the surface expression score was determined as 1.07.

For the origin of these results see the GPR68 mutational scans of Howard et al. (2025).
